Assay results taken from PubChem BioAssay AID504339 (National Center for Advancing Translational Sciences (NCATS), 2011).
Several values for one entry are separate records, joined by “and”; a condition that tells them apart may be missing. Equal values may be shown once. In all, about 390,000 compounds went through this assay and about 17,000 (4.4%) were called active. This list was built around the results that the source calls inconclusive (neither active nor inactive); the mix of calls is not that of the screen. Calls follow the shape of the dose curve; as a rule, active = well fitted inhibition curve with a large enough effect; inconclusive = small, poorly fitted or top-dose-only effect; inactive = no such curve, though single readings can be large or run the other way. A potency beside an inconclusive call is a rough fit, not a confirmed value.

target: Lysine-specific demethylase 4A (Homo sapiens) (UniProt O75164); assay: qHTS Assay for Inhibitors of JMJD2A-Tudor Domain; conditions: AlphaScreen JMJD2A-Tudor / H3K4me3 peptide binding; activity change, negative = inhibition: at 114 µM (top of the series); also: nearly all actives have a fitted effect of over 50% in size
% is scaled to controls: 0 for no effect and ±100 for the full control effect; potency is read from the fitted curve at half-maximal effect; tags tell the direction and shape of the fitted curve.

UniProt O75164, sequence (O75164 whole entry, looked up, the tested form may be a part): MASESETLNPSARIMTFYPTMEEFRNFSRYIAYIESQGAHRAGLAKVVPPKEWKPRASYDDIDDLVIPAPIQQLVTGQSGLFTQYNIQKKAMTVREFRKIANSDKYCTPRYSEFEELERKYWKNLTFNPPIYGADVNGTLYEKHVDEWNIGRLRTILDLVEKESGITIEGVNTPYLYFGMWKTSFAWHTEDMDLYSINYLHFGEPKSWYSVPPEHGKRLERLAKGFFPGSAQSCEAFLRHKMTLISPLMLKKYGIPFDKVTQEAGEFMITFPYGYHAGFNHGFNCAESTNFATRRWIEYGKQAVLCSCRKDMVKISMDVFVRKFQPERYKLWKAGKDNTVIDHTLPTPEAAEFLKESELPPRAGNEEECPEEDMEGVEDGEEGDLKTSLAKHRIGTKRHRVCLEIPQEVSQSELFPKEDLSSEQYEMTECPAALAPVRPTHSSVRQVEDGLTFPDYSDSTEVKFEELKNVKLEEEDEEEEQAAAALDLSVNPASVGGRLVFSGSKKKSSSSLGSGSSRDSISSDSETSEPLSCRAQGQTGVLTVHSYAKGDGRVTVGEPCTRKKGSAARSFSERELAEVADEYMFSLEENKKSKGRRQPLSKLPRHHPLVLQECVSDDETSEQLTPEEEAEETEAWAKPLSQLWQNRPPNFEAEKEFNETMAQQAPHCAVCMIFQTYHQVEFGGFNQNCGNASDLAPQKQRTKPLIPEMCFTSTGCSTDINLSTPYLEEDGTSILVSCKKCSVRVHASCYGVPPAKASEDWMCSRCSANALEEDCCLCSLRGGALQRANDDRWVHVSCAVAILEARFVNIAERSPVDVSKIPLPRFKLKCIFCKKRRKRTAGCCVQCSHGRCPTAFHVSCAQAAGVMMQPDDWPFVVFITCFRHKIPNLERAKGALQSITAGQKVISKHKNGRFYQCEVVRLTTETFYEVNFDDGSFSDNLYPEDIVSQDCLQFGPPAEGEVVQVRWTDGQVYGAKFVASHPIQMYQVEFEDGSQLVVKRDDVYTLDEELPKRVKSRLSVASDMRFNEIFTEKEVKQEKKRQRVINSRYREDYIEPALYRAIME

SMILES | Potency | activity change, negative = inhibition
COc1ccccc1N1CCN(S(=O)(=O)c2c(C(=O)N3CCOCC3)c(C)n(C)c2C)CC1 | active: 15.8 µM | 
Cc1ccc(/C(=N/Nc2ncnc3ccccc23)C(=O)O)cc1 | inconclusive: 63.1 µM [inhibitor, partial curve, poor fit] | 
CC(C)C(=O)NC(=O)[C@@H]1CCCN1C(=O)/C=C/c1ccccc1 | inconclusive: 89.1 µM [inhibitor, partial curve] | 
COc1cc(CN2CCN(Cc3ccc(SC)cc3)CC2)cc(OC)c1O | active: 0.891 µM | 
CCOC(=O)CSc1nc(N)nc(C)c1Cl | inconclusive: 28.2 µM [inhibitor, partial curve] | 
O=c1[nH]ncc(NCc2ccc(Cl)cc2)c1Cl | inactive | 
CC(C)c1ccc(NC(=O)C(c2ccccc2)N(C)C(=O)CCc2c[nH]c3ccccc23)cc1 (stereo unspecified) | inconclusive: 28.2 µM [inhibitor, full curve, poor fit] | 
Cc1[nH]c2ccccc2c1C(=O)CN1C(=O)C(=O)N(CCC2=CCCCC2)C1=O | inconclusive: 11.2 µM [inhibitor, full curve, poor fit] | 
COc1cccc(NC(=O)n2nc(N)cc2-c2ccc(Cl)cc2)c1 | inconclusive: 79.4 µM [inhibitor, partial curve] | 
CCCCn1c(SCC(=O)c2ccc(O)cc2O)nc2cc(S(N)(=O)=O)ccc21 | inactive | 
Cc1ccc(-c2nc3ccccc3nc2Cl)cc1 | inactive | 
Clc1ccc2c(c1)NC(c1ccncc1)=NC(c1cccs1)=N2 | inconclusive: 56.2 µM [inhibitor, partial curve] | 
O=c1[nH]c(SCc2cccc(F)c2)nc2c1CCCC2 | inconclusive: 35.5 µM [inhibitor, partial curve] | 
O=C(NC(Cc1c[nH]c2ccccc12)C(=O)Nc1ccc(F)cc1)c1cccs1 (stereo unspecified) | inconclusive: 35.5 µM [inhibitor, partial curve] | 
Cc1cc(C)c[n+](CC(=O)c2ccc(NC(=O)c3ccccc3)cc2)c1 | inactive | 
CCC(=O)OCC(=O)Nc1cc([N+](=O)[O-])ccc1OC | inconclusive: 50.1 µM [inhibitor, partial curve] | 
C=CCn1c(-c2cc3c(s2)CCC(CC)C3)n[nH]c1=S (stereo unspecified) | inconclusive: 79.4 µM [inhibitor, partial curve] | 
O=C(CSc1cccc[n+]1[O-])Nc1ccccc1Oc1ccccc1 | active: 50.1 µM | 
O=C(N/N=C/c1cccn1-c1ccc([N+](=O)[O-])cc1)C(O)c1ccccc1 (stereo unspecified) | inconclusive: 79.4 µM [inhibitor, partial curve] | 
COc1ccc(N2CCN(C(=O)COc3ccccc3)CC2)cc1 | inactive | 
Cc1cc(NCCCn2ccnc2)n2nc(C)c(-c3ccc(Cl)cc3)c2n1 | inconclusive: 44.7 µM [inhibitor, partial curve] | 
CC(C)C[C@@H](CN)NC(=O)c1nc[nH]c1C(=O)N[C@@H](C)C(=O)CNC[C@H](C)NC(=O)c1nc[nH]c1C(=O)N[C@@H](CC(=O)O)C(=O)O | active: 56.2 µM | 

SMILES | Potency | activity change, negative = inhibition
CN1CCN(c2ccccc2NC(=O)c2ccc(OCc3ccccc3)cc2)CC1 | inconclusive: 79.4 µM [inhibitor, partial curve] | 
Cc1nn(-c2ccccc2)c2c1C(c1cccs1)C(C#N)=C(N)O2 (stereo unspecified) | active: 56.2 µM | 
CC(C)C(=O)Nc1ccccc1OCc1cc(=O)n2ccccc2n1 | inactive | 
C[C@H](CO)N1C[C@H](C)[C@@H](CN(C)C(=O)Nc2ccc3c(c2)OCO3)Oc2c(NS(=O)(=O)c3ccc(F)cc3)cccc2C1=O | inactive | 
CC1CCc2c(sc(NC(=O)CCC(=O)O)c2C(=O)NC2CC2)C1 (stereo unspecified) | inconclusive: 89.1 µM [inhibitor, partial curve] | 
Cc1ccc(NC(=O)c2cc(N3C(=O)C=CC3=O)ccc2Cl)cc1C | active: 10 µM | 
Cc1onc(-c2ccccc2Cl)c1C(=O)O/N=C(\N)c1ccc([N+](=O)[O-])o1 | inconclusive: 56.2 µM [inhibitor, partial curve] | 
O=C(COC(=O)C1CCN(S(=O)(=O)c2cc([N+](=O)[O-])ccc2Cl)CC1)Nc1ncc(Cl)cc1Cl | active: 25.1 µM | 
CC(=O)N1c2ccc(S(=O)(=O)NCCC(=O)NCc3ccc(F)cc3)cc2CC1C (stereo unspecified) | inconclusive: 25.1 µM [inhibitor, full curve, poor fit] | 
Cc1ccccc1NC(=S)N(CCc1c(C)[nH]c2ccc(F)cc12)Cc1cccnc1 | inconclusive: 79.4 µM [inhibitor, partial curve] | 
CCOc1cc(/C=C/C(=O)c2ccc(OC)c(CN3CCOCC3)c2)cc(Br)c1O | inconclusive: 89.1 µM [inhibitor, partial curve] | 
CCc1cc(C(c2cccc(OC)c2)N2CCOCC2)c(NC(=O)c2ccccc2)s1 (stereo unspecified) | inactive | 
COC(=O)C(CCSC)NC(=O)c1cc2c(n(-c3ccc(Cl)cc3)c1=O)CCCC2=O (stereo unspecified) | inactive | 
CCOCCCNCc1ccc(OCc2ccccc2C)c(OC)c1 | inactive | 
COc1ccc(CN2CCC(Cc3ccccc3)CC2)cc1OC | active: 20 µM | 
O=S(=O)(Nc1ccc(O)c(Sc2nc3ccccc3s2)c1)c1ccc(F)cc1 | inconclusive: 70.8 µM [inhibitor, single point] | 
CC(=O)c1sc(NC(=O)CN2C(=O)C3CCCCC3C2=O)nc1-c1ccccc1 (stereo unspecified) | inactive | 
Cc1c(C)n(C)c2ccc(C(=O)NCCCN3CCN(C)CC3)cc12 | inconclusive: 70.8 µM [inhibitor, partial curve, poor fit] | 
CCOC(=O)C(O)(CC(=O)Nc1cc(F)ccc1C)C(F)(F)F (stereo unspecified) | inconclusive: 100 µM [inhibitor, single point] | 
C[C@]12c3[nH]c4ccc(Cl)cc4c3CCN1C(=O)[C@@H](CC(=O)NCC13CC4CC(CC(C4)C1)C3)C[C@@H]2C(=O)N1CCOCC1 | inconclusive: 20 µM [inhibitor, full curve] | 
CCOC(=O)CNC(=O)Nc1cc(C(=O)NCc2ccccc2OC)ccc1N1CCCC1 | inactive | 
NS(=O)(=O)c1ccc(NC(=O)CN2C(=O)COc3ccc(Cl)cc32)cc1 | inconclusive: 22.4 µM [inhibitor, single point] | 

SMILES | Potency | activity change, negative = inhibition
Cn1c(C(=O)N2CCCC(Nc3ccc(F)cc3)C2)cc2ccccc21 (stereo unspecified) | inconclusive: 50.1 µM [inhibitor, partial curve, poor fit] | 
CN(C)CCCNC(=S)N1CCN(c2nc(-c3ccccc3)cs2)CC1 | inconclusive: 56.2 µM [inhibitor, partial curve] | 
O=[N+]([O-])c1ccc(N2CCN(CC3CCCCC3)CC2)cc1 | active: 17.8 µM | 
c1ccc(CCc2nn3c(Cn4cnc5ccccc54)nnc3s2)cc1 | inconclusive: 63.1 µM [inhibitor, partial curve, poor fit] | 
CC1CC(C)CN(C(=O)COC(=O)/C=C/c2ccco2)C1 (stereo unspecified) | inconclusive: 31.6 µM [inhibitor, partial curve, poor fit] | 
N#Cc1c(-c2ccc(Cl)cc2)c(C#N)c(=O)n(N)c1N | inconclusive: 12.6 µM [inhibitor, partial curve] | 
CNC(=O)c1nn(-c2ccc(C)cc2)ccc1=O | inactive | 
COc1ccc(S(=O)(=O)Nc2ccccc2C(=O)NCc2ccco2)cc1Br | inconclusive: 79.4 µM [inhibitor, single point] | 
CC(NC(=O)c1cncc(Br)c1)c1ccc(S(N)(=O)=O)cc1 (stereo unspecified) |  | inactive: 2.29% [at 11.4 µM]
Cc1cc(C=O)c(C)n1-c1ccc2c(c1)OCO2 | inconclusive: 63.1 µM [inhibitor, partial curve, poor fit] | 
O=C(CSc1nnc(-c2ccc(Br)o2)n1Cc1ccccc1)c1ccccc1F | inconclusive: 50.1 µM [inhibitor, partial curve] | 
COc1ccc(N2CCN(c3csc4ccc(Cl)cc4c3=O)CC2)cc1 | inconclusive: 35.5 µM [inhibitor, full curve] | 
CCOC(=O)C1=C(C)Nc2ncnn2C1c1ccc(N(C)C)cc1 (stereo unspecified) | inconclusive: 56.2 µM [inhibitor, partial curve] and inconclusive: 79.4 µM [inhibitor, partial curve] | 
CN(Cc1c(C(=O)N/N=C/c2ccccc2)nnn1-c1nonc1N)C1CCCCC1 | inconclusive: 20 µM [inhibitor, full curve, poor fit] | 
OC(CN1CCN(c2ccccc2)CC1)c1ccc2c(c1)CCN2 (stereo unspecified) | inconclusive: 44.7 µM [inhibitor, partial curve] | 
COc1cc(CNCCO)ccc1OC1CCCC1 | inactive | 
Cc1ccc(CO/N=C/c2c(O)cc(C)oc2=O)cc1 | inconclusive: 39.8 µM [inhibitor, partial curve] | 
O=C(NCc1ccccc1Cl)C1CCCN(S(=O)(=O)c2cccc3nsnc23)C1 (stereo unspecified) | inconclusive: 89.1 µM [inhibitor, partial curve] | 
CCn1c(=O)c([N+](=O)[O-])c(N2CCN(Cc3ccc4c(c3)OCO4)CC2)c2ccccc21 | inconclusive: 31.6 µM [inhibitor, partial curve] | 
Cc1ccc(-c2csc3ncn(-n4c(C)ccc4C)c(=O)c23)o1 | inconclusive: 50.1 µM [inhibitor, partial curve] | 
Cc1ccc(C2(C)NC(=O)N(CC(=O)Nc3ccc4c(c3)OCO4)C2=O)cc1 (stereo unspecified) | inconclusive: 22.4 µM [inhibitor, partial curve] | 
CCCN(CCC)CC(O)Cn1cc(/C=C/C(=O)c2ccc(C)cc2)c2ccccc21 (stereo unspecified) | inconclusive: 50.1 µM [inhibitor, partial curve] | 
